These results are taken from PubChem BioAssay AID488969 (Vanderbilt High Throughput Screening Facility, 2010).

In all, about 110,000 compounds were measured (“z-score”: median about -0.1, highest 2% from about 2 on). The list shows a part of the results.

The assay has as its target Metabotropic glutamate receptor 8 (Rattus norvegicus) (UniProt P70579). Nature of the assay: rat mGluR8 modulators via GIRK flux, primary screen, cell-based, thallium flux, HTS (AID 488969). Conditions: HEK293 rat mGluR8, GIRK (G protein-gated inwardly rectifying potassium channel) thallium flux, FluoZin2; at 10 µM; stronger effect = higher value; submaximal glutamate (EC20) added with thallium.
Sequence of UniProt P70579 (P70579 whole entry, looked up): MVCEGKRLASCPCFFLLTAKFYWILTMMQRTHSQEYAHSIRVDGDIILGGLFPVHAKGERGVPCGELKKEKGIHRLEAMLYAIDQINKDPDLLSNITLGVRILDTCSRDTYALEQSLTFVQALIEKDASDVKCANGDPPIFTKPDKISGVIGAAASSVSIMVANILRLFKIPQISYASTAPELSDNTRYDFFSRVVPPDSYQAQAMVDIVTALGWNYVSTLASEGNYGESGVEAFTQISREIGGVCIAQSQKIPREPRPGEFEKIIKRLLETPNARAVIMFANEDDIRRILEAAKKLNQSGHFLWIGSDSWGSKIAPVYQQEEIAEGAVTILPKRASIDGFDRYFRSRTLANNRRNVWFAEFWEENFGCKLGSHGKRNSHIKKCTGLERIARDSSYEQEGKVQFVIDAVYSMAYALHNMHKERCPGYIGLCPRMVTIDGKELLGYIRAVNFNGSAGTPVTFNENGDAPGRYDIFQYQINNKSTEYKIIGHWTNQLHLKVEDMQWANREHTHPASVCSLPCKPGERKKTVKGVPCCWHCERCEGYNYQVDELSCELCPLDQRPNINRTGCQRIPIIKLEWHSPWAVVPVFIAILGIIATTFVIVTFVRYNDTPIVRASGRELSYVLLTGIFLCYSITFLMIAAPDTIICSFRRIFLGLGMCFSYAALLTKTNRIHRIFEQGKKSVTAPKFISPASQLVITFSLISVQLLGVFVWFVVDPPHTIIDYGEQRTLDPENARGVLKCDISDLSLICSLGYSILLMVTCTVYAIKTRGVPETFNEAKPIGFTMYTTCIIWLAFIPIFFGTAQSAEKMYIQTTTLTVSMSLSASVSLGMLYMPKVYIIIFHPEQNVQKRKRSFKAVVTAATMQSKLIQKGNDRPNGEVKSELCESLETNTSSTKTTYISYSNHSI
As for `COCCn1c(COC)nc2ccccc21`, the z-score is 0.868.
The molecule `COc1ccc2nc(Nc3nc4cc5c(cc4s3)OCCO5)sc2c1` yielded a z-score of 0.773.
Then `COc1ccc(S(=O)(=O)N(C)CC(=O)NCc2cccnc2)cc1Cl`, with 0.0929; and `CC1CC(C)CN(C(=O)COc2ccc(-c3nnco3)cc2)C1` (configuration not stated), with -0.47.
The molecule `COc1cccc(C(=O)N(c2ccc(OC)cc2OC)C2C=CS(=O)(=O)C2)c1` (configuration not stated) gave a z-score of 0.12.
Turning to `CCN(CC)S(=O)(=O)c1ccc(C)c(NC(=O)COc2ccc3c(C)cc(=O)oc3c2)c1`, the z-score is -0.0267.
With `COc1ccc(N2CCN(c3nc(=S)n(-c4ccccc4)c(C)c3C(C)=O)CC2)cc1`, the z-score was -0.322.
To `CC1(C)CC(=O)C(C=Nc2ccncc2)=C(O)C1` belongs -0.0532; to `CC(NC(=O)CCNC(=O)c1ccccc1Cl)C1CC2CCC1C2` (configuration not stated), 0.269.
Then `COc1cccc(C(=O)Nn2c(C)nnc2-n2nc(C)cc2C)c1`, with 0.454; and `CCN(CC)CCOc1ccc(Br)cc1`, with 0.733.
Regarding `CCOc1ccc(NC(=O)CSC2=C(C#N)C(c3ccc4c(c3)OCO4)CC(=O)N2)cc1` (configuration not stated), the z-score was -0.0625.
Then `Clc1ccc(-c2csc3ncnc(N4CCc5ccccc5C4)c23)cc1`, with 0.0998; and `COc1ccc(C(=O)/C=C/Nc2cccc(C)n2)cc1OC`, with 0.964; and `CCOCCOC(=O)COc1ccc2c(-c3ccccc3)cc(=O)oc2c1`, with -1.15.
Then `OCCCNC(=S)Nc1ccc(Oc2ccccc2)cc1`, with -0.00349; and `S=C(Nc1ccc(Cl)c(Cl)c1)NC1CCN(Cc2ccccc2)CC1`, with 0.466.
Then `Cc1ccccc1N1CCN(Cc2c[nH]c3ccccc23)CC1`, with 1.32; and `O=C1CCCN1c1ccc(S(=O)(=O)Oc2ccc(Cl)cc2)cc1[N+](=O)[O-]`, with 0.0274; and `CCCOc1ccc(NC(=O)C2CCCNC2=O)cc1` (configuration not stated), with -0.128.
`Cc1oc(-c2ccccc2)cc1C(=O)Nc1ccc(N(C)C)cc1`: the z-score is -0.0797.
Then `COc1ccc(C2=CC(=O)OC3(CCCC3)O2)cc1`, with -0.561.
In the case of `COc1cc(C(=O)N(Cc2ccco2)Cc2cc3ccccc3[nH]c2=O)cc(OC)c1OC`, the z-score is -0.671.
`CCOC(=O)C(C)Sc1ncc(OC)c(=O)[nH]1` (configuration not stated): the z-score is -0.05.
In the case of `S=C1NCCc2ccccc2C1c1ccccc1` (configuration not stated), the z-score is -0.276.
Then `COc1cc(C)nc(N2CCCC(C(=O)NCC(C)C)C2)n1` (configuration not stated), with -0.0863; and `Cc1nn(Cc2ccccc2)c(C)c1NC(=O)CSc1nnc(-c2cc(Cl)ccc2O)n1C`, with -0.0999; and `Cc1cccc2cc3c(NC(=O)c4ccccn4)nn(C)c3nc12`, with -0.0148.
In the case of `O=C(O)CC(NCc1ccco1)C(=O)OCC1CCCO1` (configuration not stated), the z-score is -0.312.
To `COc1ccc(C(=O)/C=C/Nc2cc(C)on2)cc1` belongs 0.165.
For the molecule `CCOc1ccc(CC(=NCCO)C2=C(O)CC(C)(C)CC2=O)cc1OCC`, the z-score is -0.189.
Then `Cc1cc(C)c(S(=O)(=O)Nc2ccccc2-c2ccccc2)c(C)c1`, with 0.652.
